PMC4641898
These are yes or no findings as the source states them, for the method shown. For some assays here: Binding seen in cells or lysates may run through a third protein. Some entries that bind do so weakly or less than the wild type. Where a sequence is shown, tags or fusion partners need not be part of it.

By UniProt entry, the sequences of proteins in these tests, tags left out. Where a name states a change or a piece, a line headed by the entry shows the natural chain unless it says otherwise.
UniProt P22953: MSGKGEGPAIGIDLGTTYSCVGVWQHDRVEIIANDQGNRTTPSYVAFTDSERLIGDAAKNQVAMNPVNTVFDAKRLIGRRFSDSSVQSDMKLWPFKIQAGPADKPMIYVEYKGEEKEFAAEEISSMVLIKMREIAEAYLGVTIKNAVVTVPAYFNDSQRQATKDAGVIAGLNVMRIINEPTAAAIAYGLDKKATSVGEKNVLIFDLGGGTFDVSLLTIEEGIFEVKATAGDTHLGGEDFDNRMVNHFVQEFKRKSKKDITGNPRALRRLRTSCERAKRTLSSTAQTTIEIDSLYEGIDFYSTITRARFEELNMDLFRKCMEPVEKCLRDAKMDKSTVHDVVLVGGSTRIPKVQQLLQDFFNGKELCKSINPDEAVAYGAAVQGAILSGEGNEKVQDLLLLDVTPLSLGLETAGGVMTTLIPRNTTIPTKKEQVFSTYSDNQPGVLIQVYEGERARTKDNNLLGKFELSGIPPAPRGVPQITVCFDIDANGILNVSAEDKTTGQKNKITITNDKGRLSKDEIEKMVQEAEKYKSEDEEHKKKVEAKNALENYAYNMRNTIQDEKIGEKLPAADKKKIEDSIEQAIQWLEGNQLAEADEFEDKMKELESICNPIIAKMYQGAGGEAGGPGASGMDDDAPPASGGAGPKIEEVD

Columns and labels:
[1] = target: T1, RRM protein (At5g10350), full length, split-YFP fusion in tobacco BY-2 protoplasts (Arabidopsis thaliana) (UniProt Q9LX90); experiment: split reporter; BiFC screen: nYFP-RRM against a cYFP-tagged Arabidopsis cDNA library in tobacco BY-2 protoplasts; the identified cYFP clones co-transfected with nYFP-RRM and mRFP-VirD2NLS
T1 sequence: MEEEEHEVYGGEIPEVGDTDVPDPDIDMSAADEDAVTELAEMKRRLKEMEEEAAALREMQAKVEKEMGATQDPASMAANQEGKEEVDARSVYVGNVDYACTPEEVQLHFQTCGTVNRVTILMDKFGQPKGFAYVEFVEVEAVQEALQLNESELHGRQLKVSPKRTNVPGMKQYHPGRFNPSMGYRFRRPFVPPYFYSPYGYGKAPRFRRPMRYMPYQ

[2] = target: T2, RRM protein (At5g10350), full length, yeast two-hybrid fusion (Arabidopsis thaliana) (UniProt Q9LX90); experiment: two-hybrid; GAL4-based Matchmaker system, pGADT7-DEST and pGBKT7-DEST fusions co-transformed into S. cerevisiae PJ69-4a (His3 and Ade2 reporters); histidine and stringent adenine selection
T2 sequence: T1 sequence

Substance | binding [1] | binding [2]
cYFP-tagged Heat Shock Cognate protein 70-1 fragment HSP70-1(1-211), cDNA library clone (from UniProt P22953 1-211) (domain or fragment) | binds | 
Heat Shock Cognate protein 70-1 (HSP70-1), full length, yeast two-hybrid fusion (from UniProt P22953 1-651) |  | no binding
